Here are results for 39 compounds from the supplement of paper PMC9446081.

Out of some 39,000 compounds screened, about 220 (0.56%) showed activity. The list shows a part of the results.
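Note: static incubation at 37 °C against the wild-type strain, values averaged over two biological replicates.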

This test concerns Escherichia coli K-12 BW25113. Put plainly: relative growth (OD600 normalised to plate interquartile mean) (fraction); higher = less growth inhibition, active = 0.2 or less. The settings on record: 50 µM; LB; incubation time: overnight (16-24 h).
For the compound `C[C@@H]1CN([C@H](C)CO)C(=O)c2cc(NC(=O)CCCCCC(=O)Nc3ccccc3N)ccc2O[C@@H]1CN(C)Cc1ccc(Oc2ccccc2)cc1`, the relative growth was inactive: 0.936. For the compound `O=C(N[C@H]1CC[C@H](CC(=O)N2CCOCC2)O[C@H]1CO)c1ccc2c(c1)OCO2`, the relative growth was inactive: 1.01. With `C[C@@H]1CCCCO[C@H](CN(C)C(=O)NC2CCCCC2)[C@H](C)CN([C@@H](C)CO)C(=O)c2cc(NS(=O)(=O)c3ccc(Cl)cc3)ccc2O1`, the relative growth is inactive: 1.03. In the case of `C[C@@H]1CN([C@H](C)CO)C(=O)Cc2cc(NC(=O)Nc3ccc(C(F)(F)F)cc3)ccc2O[C@@H]1CN(C)S(C)(=O)=O` it was inactive: 0.997. For the compound `Cc1ccc(S(=O)(=O)N(C)C[C@H]2Oc3c(NC(=O)C4CCOCC4)cccc3C(=O)N([C@H](C)CO)C[C@@H]2C)cc1`, the relative growth was inactive: 1.01. Turning to `C[C@@H]1CN([C@H](C)CO)C(=O)c2cccc(NC(=O)Nc3ccc(C(F)(F)F)cc3)c2O[C@@H]1CN(C)Cc1ccccc1`, the relative growth is inactive: 0.998.

Take `NCCC(O)C(=O)NC1CC(N)C(OC2OC(CN)C(O)C(O)C2O)C(O)C1OC1OC(CO)C(O)C(N)C1O.O` (centres undefined): the relative growth is active: 0.0465. With `C[C@H](CO)N1C[C@H](C)[C@@H](CN(C)S(=O)(=O)c2ccc(Cl)cc2)Oc2ccc(NS(C)(=O)=O)cc2CC1=O`, the relative growth is inactive: 1.02. In the case of `O=C1O[C@H](c2ccccc2)[C@H](c2ccccc2)N2[C@H]1[C@@H](C(=O)O)[C@]1(C(=O)Nc3ccc(C#CC4(O)CCCCCC4)cc31)[C@H]2c1ccccc1OCCO`, the relative growth is inactive: 0.941. In the case of `COc1ccc(cc1)CN1CC[C@]2(CC1)CN([C@@H](CO)c1[nH]c3cc(ccc3c12)OC)C(=O)Nc1ccc(cc1)F` it was inactive: 1.02; in that of `C[C@@H]1CN([C@@H](C)CO)C(=O)c2cc(NC(=O)c3ccncc3)ccc2O[C@@H](C)CCCCO[C@H]1CN(C)C(=O)Nc1ccc(C(F)(F)F)cc1`, inactive: 0.995. With `CC(C)NC(=O)N(C)C[C@H]1Oc2ccc(NC(=O)Cn3cnnn3)cc2C(=O)N([C@@H](C)CO)C[C@@H]1C`, the relative growth was inactive: 0.991.

As for `CCOc1ccc(NC(=O)CC(C)O)cc1` (centres undefined), the relative growth is inactive: 0.976. Regarding `C[C@@H]1CN([C@@H](C)CO)C(=O)c2cc(-c3cccnc3)cnc2O[C@@H]1CN(C)C(=O)Nc1ccc2c(c1)OCO2`, the relative growth was inactive: 0.975. In the case of `CC[C@@H](C)NCCCCOc1ccc(Cl)cc1C(C)(C)C` it was inactive: 0.904. In the case of `C[C@H](CO)N1C[C@H](C)[C@@H](CN(C)C(=O)Nc2cccc3ccccc23)Oc2c(NS(=O)(=O)c3ccc(Cl)cc3)cccc2C1=O`, the relative growth was inactive: 1. As to `C[C@H]1CN([C@@H](C)CO)C(=O)c2cc(NC(=O)CCCCCC(=O)Nc3ccccc3N)ccc2O[C@H]1CN(C)Cc1ccc(C(F)(F)F)cc1`, the relative growth was inactive: 1.04.

Turning to `Cc1nc2n(c(=O)c1CCN1CCC(c3noc4cc(F)ccc34)CC1)CCCC2O` (centres undefined), the relative growth was inactive: 1.11. As to `C[C@@H]1CN([C@H](C)CO)C(=O)Cc2cc(NC(=O)CCN3CCOCC3)ccc2O[C@@H]1CN(C)C(=O)Nc1ccc2c(c1)OCO2`, the relative growth was inactive: 1. Regarding `CC(C)NC(=O)N(C)C[C@H]1Oc2c(NC(=O)C3CCOCC3)cccc2C(=O)N([C@H](C)CO)C[C@H]1C`, the relative growth is inactive: 0.999. Turning to `C[C@H](CO)N1C[C@H](C)[C@@H](CN(C)Cc2ccncc2)Oc2ccc(NC(=O)Nc3ccc(C(F)(F)F)cc3)cc2C1=O`, the relative growth was inactive: 0.971. The figure for `Clc1ccc2ncccc2c1` is inactive: 0.98; for `O=C(C[C@H]1C=C[C@@H](NC(=O)Nc2cc(F)ccc2F)[C@@H](CO)O1)NCCCN1CCOCC1` it is inactive: 1.02; for `C[C@@H]1CN([C@H](C)CO)C(=O)c2cc(NC(=O)NC3CCCCC3)ccc2O[C@@H](C)CCCCO[C@H]1CN(C)S(=O)(=O)c1cccs1` it is inactive: 1.01. Turning to `Cc1cc(O)c(C(C)C)cc1Cl`, the relative growth was inactive: 1.01. As to `C[C@@H]1CN([C@H](C)CO)C(=O)c2cc(/C=C/c3ccccc3)cnc2O[C@H]1CN(C)C(=O)CN1CCOCC1`, the relative growth is inactive: 1.

In the case of `C[C@H](CO)N1C[C@H](C)[C@H](CN(C)S(=O)(=O)c2ccccc2)Oc2ccc(NC(=O)C3CC3)cc2C1=O`, the relative growth is inactive: 0.982.

For the compound `COc1ccc(NC(=O)N(C)C[C@@H]2Oc3c(NS(=O)(=O)c4cn(C)cn4)cccc3C(=O)N([C@H](C)CO)C[C@H]2C)cc1`, the relative growth was inactive: 1.01. Consider `COc1ccc(-c2cnc3c(c2)C(=O)N([C@@H](C)CO)C[C@@H](C)[C@H](CN(C)C(=O)Cc2ccncc2)O3)cc1`, for which the relative growth is inactive: 0.993.

As to `C/C=C/c1ccc2c(c1)O[C@H](CN(C)Cc1ccc(C(=O)O)cc1)[C@H](C)CN([C@H](C)CO)S2(=O)=O`, the relative growth was inactive: 1.01. In the case of `C[C@@H]1CN([C@H](C)CO)C(=O)c2cc(NC(=O)Cc3ccccc3)ccc2O[C@H]1CN(C)Cc1ccc(Cl)c(Cl)c1` it was inactive: 1.02; in that of `COc1ccc(S(=O)(=O)N(C)C[C@@H]2Oc3cc(-c4ccccc4OC)ccc3S(=O)(=O)N([C@H](C)CO)C[C@H]2C)cc1`, inactive: 1.06; in that of `C[C@H]1CN([C@@H](C)CO)C(=O)CCCn2nncc2CO[C@H]1CN(C)C(=O)Nc1ccc(C(C)(C)C)cc1`, inactive: 1.

In the case of `CCOC(=O)[C@H]1[C@@H]2C=C[C@]3(O2)[C@H](C(=O)NCc2ccccc2)N(Cc2cc(OC)cc(OC)c2)C(=O)[C@@H]13`, the relative growth is inactive: 0.957.

Regarding `Cc1noc(C)c1NC(=O)Nc1ccc2c(c1)CC(=O)N([C@H](C)CO)C[C@@H](C)[C@H](CN(C)S(=O)(=O)c1cccs1)O2`, the relative growth is inactive: 0.998. `C[C@H](CO)N1C[C@H](C)[C@@H](CN(C)S(=O)(=O)c2ccccc2)Oc2ccc(NS(=O)(=O)c3ccc(F)cc3)cc2CC1=O`: the relative growth was inactive: 1.04. Consider `C[C@@H]1CCCCO[C@@H](CN(C)C(=O)Nc2ccc(C(F)(F)F)cc2)[C@H](C)CN([C@@H](C)CO)C(=O)c2cc(NS(=O)(=O)c3ccc(Cl)cc3)ccc2O1`, for which the relative growth was inactive: 0.984. On to `Cc1c2occ(C(C)(C)C)c2cc2c3c(c(=O)oc12)CCCC3`, for which the relative growth is inactive: 1.04. In the case of `C[C@H](CO)N1C[C@H](C)[C@@H](CN(C)C(=O)NC2CCCCC2)OCCCC[C@H](C)Oc2ccc(NC(=O)c3ccccc3)cc2C1=O` it was inactive: 1.01.
